This passage reports TGI and GI50 results from PubChem BioAssay (NCI).

Common to all, as to test: NCI anticancer screen, dose series, 48 h
In experiment [1] the test system is SR leukemia.
Experiment [2] has as its system NCI-H23 lung.
The subject of experiment [3] is T-47D breast.
Experiment [4] relates to BT-549 breast.
Experiment [5] concerns K-562 leukemia.
Experiment [6] relates to CCRF-CEM leukemia.
For experiment [7], the system named is NCI/ADR-RES ovarian.

The structures appear in SMILES notation.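 Briefly, cells in 96-well plates were exposed to five compound concentrations for 48 h, and endpoints were estimated by linear interpolation. GI50: concentration for 50% inhibition of growth.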 For part of its entries the source gives two or more results. The list is limited to them. The source may hold further records. For some of these results: Values that stand side by side are repeats (runs, samples, wells, individuals or studies). Records carry a tag for their origin. Letters count within one entry.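 TGI denotes the concentration required for complete inhibition of growth.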 For some of these results: The tests behind the records often covered other concentration ranges, which the source does not state; some values may only mark the edge of a range.

Take `O=S1(=O)CS(=O)(=O)OCCO1`: the TGI in experiment [1] was 13.5 µM and 431 µM.
Take `Cc1cc(C(=O)NC(CCC(=O)O)C(=O)O)sc1CCC1CNc2nc(N)[nH]c(=O)c2C1` (configuration not stated): the GI50 was 125 nM [sample A, mean of 2 tests] and 1.52 µM [sample B, mean of 2 tests] in experiment [2]; 197 nM [sample A, mean of 2 tests] and 6.9 µM [sample B, mean of 2 tests] in experiment [3].
For the compound `CC(C)n1nc(-c2ccc3oc(N)nc3c2)c2c(N)ncnc21`, the TGI in experiment [4] is 59.6 nM [sample A, mean of 2 tests] and 1.02 µM [sample B, mean of 2 tests].
Consider `C/C(=N\NC(=S)N1CC2CCC(CC2)C1)c1cccc(C)n1`, for which the TGI in experiment [5] was 170 nM and > 34.5 µM; in experiment [6], 78.5 nM and 2.39 µM; in experiment [7] it was 581 nM and 6.73 µM.
